PubChem BioAssay AID624417 (National Center for Advancing Translational Sciences (NCATS), 2012)
Among all 410,000 compounds or so, about 6,400 (1.6%) were called active. The shares of active, inactive and inconclusive entries below differ from those in the screen. Calls come from the whole dose curve; as a rule, active = well fitted inhibition curve with a large enough effect; inconclusive = small, poorly fitted or top-dose-only effect; inactive = no such curve, though single readings can be large or run the other way. Where the call is inconclusive, the potency comes from a doubtful curve fit. Numbered stars: 1 amine (or outer) side, 2 acyl side, 3 side chain; on linkers, the order of the positions; unused ones are H or OH. Square brackets hold non-standard residues; d marks the D form. Peptide text beside a SMILES is read from it. X2 = CCC[C@@H](N[*:1])[C@H](C)C(=O)O[C@H](C(=O)[*:2])[C@@H](C)CC; X1 = CC(N[*:1])C(=O)C(C)(C)C(=O)[*:2]; NMeY = CN[C@@H](Cc1ccc(O)cc1)C(=O)O; NMeL = CN[C@@H](CC(C)C)C(=O)O; NMeV = CN[C@H](C(=O)O)C(C)C; NMeA = CN[C@@H](C)C(=O)O

These compounds were tested against Glucagon-like peptide 1 receptor (Homo sapiens) (UniProt P43220) (assay: qHTS of GLP-1 Receptor Inverse Agonists (Inhibition Mode)). Settings: HEK293 GLP-1R CRE-luciferase, luminescence, 24 h, GLP-1R form is constitutively active; activity change, negative = inhibition: at 38.3 µM (top of the series) unless noted.
Chain of UniProt P43220 (P43220 whole entry, looked up): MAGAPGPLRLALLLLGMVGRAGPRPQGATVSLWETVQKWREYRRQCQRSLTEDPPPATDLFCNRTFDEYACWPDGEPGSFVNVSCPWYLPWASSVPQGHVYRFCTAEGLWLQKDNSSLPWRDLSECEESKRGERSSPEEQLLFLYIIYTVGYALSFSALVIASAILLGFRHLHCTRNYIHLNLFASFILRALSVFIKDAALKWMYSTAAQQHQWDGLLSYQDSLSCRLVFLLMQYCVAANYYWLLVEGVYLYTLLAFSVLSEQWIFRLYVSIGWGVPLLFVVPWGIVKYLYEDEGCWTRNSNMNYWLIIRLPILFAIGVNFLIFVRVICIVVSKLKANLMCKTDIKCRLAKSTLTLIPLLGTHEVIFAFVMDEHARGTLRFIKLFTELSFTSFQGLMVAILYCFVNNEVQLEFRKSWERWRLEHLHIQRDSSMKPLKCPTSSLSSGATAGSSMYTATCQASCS
How it was run: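 Stable HEK293 clone (constitutively active GLP-1R + cAMP-response luciferase); 200 cells/uL plated, 12 h pre-culture, compound 24 hr, 37 deg C/5% CO2; detection reagent 12 min RT; luminescence.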
% is set by controls: 0 for no effect and ±100 for the full control effect; potency is the fitted concentration of half-maximal effect; tags give direction and shape of the fitted curve.
Note: nearly all actives have a fitted effect of over 55% in size.

Row | Compound | Potency | activity change, negative = inhibition
1 | COc1ccccc1Oc1ccc2c(c1)C(=O)N(c1ccc(O)cc1)C2=O | inconclusive: 0.562 µM [inhibitor, full curve, poor fit] | –
2 | COC(=O)CNC(c1ccccc1Cl)c1cc(Br)ccc1NS(=O)(=O)c1ccc(C)cc1 (stereo not drawn) | active: 3.55 µM | –
3 | CC(C)C1COC(c2cccn2Cc2ccccc2Cl)=N1 (stereo not drawn) | inconclusive: 11.2 µM [inhibitor, partial curve, poor fit] | –
4 | COc1ccc(/C=N/NC(=O)NC23CC4CC(CC(C4)C2)C3)c(OC)c1 | inconclusive: 1.78 µM [inhibitor, partial curve, poor fit] | –
5 | Cc1oc(-c2ccccc2F)nc1CSCC(=O)NC1CCC(C)CC1 (stereo not drawn) | inconclusive: 25.1 µM [inhibitor, partial curve, poor fit] | –
6 | CCCOP(=O)(c1ccc(N(C)C)cc1)C(O)c1ccncc1 (stereo not drawn) | inactive | –
7 | CSc1cccc(NC(=S)NC(=O)c2cccnc2)c1 | inactive | –
8 | Cc1ccc(S(=O)(=O)c2c(Nc3ccccc3)sc(C(=O)c3ccc4c(c3)OCO4)c2N)cc1 | inconclusive: 5.62 µM [inhibitor, full curve] | –
9 | COc1ccc(NC(=O)CN(C)C(=O)C2(c3ccccc3)CCCC2)cc1 | inconclusive: 14.1 µM [inhibitor, single point] | –
10 | Cc1c(C)n(Cc2ccccc2)c2ccc(C(=O)NCCN3CCOCC3)cc12 | inconclusive: 11.2 µM [inhibitor, partial curve] | –
11 | CC(C)(C)n1cnc2cc(NC(=O)c3ccccc3)ccc21 | inconclusive: 22.4 µM [inhibitor, single point] | –
12 | CCCn1c2c(c(O)c(C(=O)NCc3ccccc3)c1=O)CCCC2 | inconclusive: 2.82 µM [inhibitor, partial curve, poor fit] | –
13 | CC1(C(=O)NCc2ccccc2)CN(S(C)(=O)=O)CC(=O)N1CCc1c[nH]c2ccccc12 (stereo not drawn) | inactive | –
14 | COc1ccc(CN2C(=O)COc3ccccc32)cc1 | inconclusive: 6.31 µM [inhibitor, partial curve, poor fit] | –
15 | Cc1ccccc1C(=O)N1CCc2c([nH]c3ccccc23)C1C(F)(F)F (stereo not drawn) | inconclusive: 10 µM [inhibitor, partial curve, poor fit] | –
16 | Fc1ccccc1Cc1noc(CN2CCN(C/C=C/c3ccccc3)CC2)n1 | inconclusive: 14.1 µM [inhibitor, single point] | –
17 | OCC1(Cc2ccccc2Cl)CCN(C/C=C/c2ccccc2)CC1 | active: 10 µM | –
18 | C[C@@]12C(=O)Nc3ccc(Cl)cc3C(=O)N1[C@H]1c3cc(Br)ccc3OC[C@@H]1[C@@H]2c1ccccc1 | inconclusive: 6.31 µM [inhibitor, partial curve, poor fit] | –
19 | COc1ccc(NC(=O)c2cccc(N3C(=O)NC4CC3(C)Oc3ccccc34)c2)cc1 (stereo not drawn) | active: 3.98 µM | –
20 | O=C(COC(=O)/C=C/c1cccs1)Nc1cccc(S(=O)(=O)N2CCCC2)c1 | inconclusive: 28.2 µM [inhibitor, single point] | –

Row | Compound | Potency | activity change, negative = inhibition
21 | COc1cccc(-n2cc(C(=O)Oc3ccc(F)cc3)c3ccccc3c2=O)c1 | inactive | –
22 | Cc1nn2c(=O)cc(COC(=O)c3ccccc3NC(=O)C(C)C)nc2s1 | inactive | –
23 | O=C(CN1CCCC1)Nc1c2c(nc3ccccc13)N(Cc1ccccc1)CC2 | inconclusive: 8.91 µM [inhibitor, partial curve, poor fit] | –
24 | CC(C)N(C(=O)COC(=O)c1cc(Cl)cc(Cl)c1N)C(C)C | inconclusive: 28.2 µM [inhibitor, single point] | –
25 | O=[N+]([O-])c1cccc(C2NCC(c3ccccc3Cl)c3c2[nH]c2ccccc32)c1 (stereo not drawn) | – | inconclusive: -42.5% [inhibitor] [at 7.66 µM]
26 | CCCCCCCC[n+]1cccc2c3ccccc3ccc21 | inconclusive: 2.24 µM [inhibitor, full curve, poor fit] | –
27 | COc1cccc(CN2CCCC(C(=O)c3ccc4c(c3)OCO4)C2)c1O (stereo not drawn) | inconclusive: 14.1 µM [inhibitor, partial curve, poor fit] | –
28 | O=c1oc(C2(O)CCCCC2)cc2ccc(/C=C/c3ccc(F)cc3)cc12 | inconclusive: 3.16 µM [inhibitor, full curve] | –
29 | CCOc1ccc(NS(=O)(=O)c2cc(Cl)ccc2OC)cc1 | inconclusive: 7.94 µM [inhibitor, partial curve, poor fit] | –
30 | O=C(NCC(c1cccs1)N1CCOCC1)c1cc(-c2ccc(F)cc2)nc2ccccc12 (stereo not drawn) | inconclusive: 10 µM [inhibitor, partial curve, poor fit] | –
31 | CC(NC(=O)C(Cc1ccccc1)=NO)c1ccccc1 (stereo not drawn) | inconclusive: 12.6 µM [inhibitor, single point] | –
32 | Cc1nn2c(=O)cc(COC(=O)c3ccc(NC(=O)c4ccc(C(C)(C)C)cc4)cc3)nc2s1 | inactive | –
33 | CCc1ccc(Cn2c(CNS(=O)(=O)c3ccc(Cl)s3)nc3cccnc32)cc1 | inactive | –
34 | OCCC1CN(Cc2cnc(-c3ccccc3)s2)CCN1C1CCCCC1 (stereo not drawn) | inconclusive: 0.447 µM [inhibitor, full curve, poor fit] | –
35 | Nc1nc(CN2CCN(c3ccccc3F)CC2)nc(N2CCCc3ccccc32)n1 | inconclusive: 28.2 µM [inhibitor, single point] | –
36 | COc1ccc([C@H]2[C@H](C(=O)OC(C)(C)C)N3N=Cc4ccccc4C3C23C(=O)c2ccccc2C3=O)c(OC)c1 (stereo partly drawn) | inconclusive: 1.78 µM [inhibitor, partial curve, poor fit] | –
37 | CN(C)CCNC(=O)c1onc(CSc2ccc(F)c(F)c2)c1C(=O)NCCN(C)C | inconclusive: 12.6 µM [inhibitor, partial curve, poor fit] | –
38 | O=C(COc1ccc(Cl)cc1Cl)N/N=C/c1ccc[nH]1 | inconclusive: 5.62 µM [inhibitor, partial curve, poor fit] | –
39 | CC(C)CC1C(=O)N(Cc2cn(CCC3OCCCO3)nn2)CCS(=O)(=O)N1Cc1ccc(-c2ccc(Cl)c(Cl)c2)cc1 (stereo not drawn) | inconclusive: 22.4 µM [inhibitor, single point] | –
40 | Cc1cc(C)nc(-n2nc(C)c(Br)c2Nc2ccc(Br)cc2)n1 | inconclusive: 3.16 µM [inhibitor, partial curve, poor fit] | –

Row | Compound | Potency | activity change, negative = inhibition
41 | Cc1ccc(CNC(=O)c2cnn(-c3ccc(F)cc3F)c2C2CCN(C(=O)OC(C)(C)C)CC2)cc1 | inconclusive: 11.2 µM [inhibitor, partial curve, poor fit] | –
42 | COc1cccc(CNC(=O)CC(c2ccc(C)cc2)N2Cc3ccccc3C2=O)c1 (stereo not drawn) | inactive | –
43 | COc1cccc(CNC(=O)c2cccc(NC(=O)c3nsc4ccccc34)c2)c1 | inconclusive: 28.2 µM [inhibitor, single point] | –
44 | COc1cc(Cl)c(NC(=O)CN(C)S(=O)(=O)c2ccc3[nH]c4c(c3c2)CCCC4)c(OC)c1 | inconclusive: 8.91 µM [inhibitor, partial curve, poor fit] | –
45 | Cc1ccccc1NC1=C(Cl)C(=O)OC1OC(=O)c1ccccc1C (stereo not drawn) | inconclusive: 11.2 µM [inhibitor, partial curve, poor fit] | –
46 | COc1cc(OC)cc(C(=O)N[C@H](C(=O)NNC(=O)c2ccc(Br)cc2)C(C)C)c1 | inconclusive: 2.51 µM [inhibitor, full curve] | –
47 | Clc1ccccc1CN(Cc1ccccc1)c1ncnc2nc[nH]c12 | inconclusive: 28.2 µM [inhibitor, single point] | –
48 | CCC[C@H]1NC(=O)[C@H](C)N(C)C(=O)C(C)(C)C(=O)C(C)NC(=O)[C@H](Cc2ccc(OC)cc2)N(C)C(=O)[C@H](C(C)C)N(C)C(=O)CNC(=O)[C@H](CC(C)C)N(C)C(=O)CNC(=O)[C@H]([C@@H](C)CC)OC(=O)[C@H]1C (stereo partly drawn) (cyclo(G[NMeL]G[NMeV][NMeY](Me)[X1][NMeA][X2])) | inconclusive: 1 µM [inhibitor, full curve] | –
49 | COc1cc(Br)cc(/C=N/NC(=O)Cc2ccc(C(F)(F)F)cc2[N+](=O)[O-])c1O | inconclusive: 1.26 µM [inhibitor, full curve, poor fit] | –
50 | O=C(Nc1ccc2c(c1)OCCO2)C(c1ccccc1)n1c(=O)c(-c2cc3ccccc3[nH]2)nc2ccccc21 (stereo not drawn) | inconclusive: 14.1 µM [inhibitor, partial curve, poor fit] | –
51 | COc1cc(NC(=O)c2cccs2)c(OC)cc1NC(=O)Nc1ccc(F)cc1 | inconclusive: 3.16 µM [inhibitor, partial curve, poor fit] | –
52 | Cc1c(Cl)cccc1NC(=O)Cn1c(-c2ccc(F)cc2)noc1=O | inconclusive: 14.1 µM [inhibitor, single point] | –
53 | O=C(Nc1ccc(Br)cc1)C1CCCN(S(=O)(=O)c2cccnc2)C1 (stereo not drawn) | inconclusive: 17.8 µM [inhibitor, partial curve, poor fit] | –
54 | COc1ccc(C)cc1NC(=O)CSc1nc2ccccc2nc1N1CC(C)OC(C)C1 (stereo not drawn) | inconclusive: 28.2 µM [inhibitor, single point] | –
55 | CC(=O)c1c(C)oc2ccc(N(C(=O)c3ccncc3)S(=O)(=O)c3ccc(F)cc3C)cc12 | inconclusive: 20 µM [inhibitor, single point] | –
56 | COc1ccc(N(CC(=O)N2CCN(c3ccc(F)cc3)CC2)S(=O)(=O)c2c(C)nn(C)c2C)cc1 | inactive | –
57 | CCn1cc(C(=O)NCC(C)C)c(=O)c2cc(F)c(N3CCN(C)CC3)cc21 | inconclusive: 2.82 µM [inhibitor, partial curve, poor fit] | –
58 | Cc1ccccc1NC(=S)NCCSc1ccc(Cl)cc1 | inconclusive: 17.8 µM [inhibitor, partial curve, poor fit] | –
